Data taken from US11618753B2 (priority 2018, dated 2023).

Each molecule was assayed on MLKL phosphorylation, HT29-L23 human colorectal adenocarcinoma cells (assay: cells). Details: read-out: pMLKL HCS Cell Assay (IC50, uM).
Work on `Nc1ncnn2c(-c3ccc(OC(F)F)c(C(=O)N[C@@H]4CN(C(=O)CC(F)(F)F)C[C@@H]4F)c3)cc(C(F)(F)F)c12` [Example 1082, 5-[4-amino-5-(trifluoromethyl)pyrrolo[2,1-f][1,2,4]triazin-7-yl]-2-(difluoromethoxy)-N-[(3R,4S)-4-fluoro-1-(3,3,3-trifluoropropanoyl)pyrrolidin-3-yl]benzamide] yielded an IC50 of 0.03 µM.
Work on `Cc1cc(-c2cc(C(F)(F)F)c3c(N)ncnn23)cc(C(=O)N[C@@H]2CN(C(=O)c3ccccc3F)C[C@@H]2F)c1Cl` [Example 708, 5-[4-amino-5-(trifluoromethyl)pyrrolo[2,1-f][1,2,4]triazin-7-yl]-2-chloro-N-[(3R,4S)-4-fluoro-1-(2-fluorobenzoyl)pyrrolidin-3-yl]-3-methylbenzamide] yielded an IC50 of 0.0093 µM.
`Cc1cc(F)c(-c2cc(C(F)(F)F)c3c(N)ncnn23)cc1C(=O)N[C@@H]1CN(C(=O)c2cc(F)ccn2)C[C@@H]1F` [Example 822, 5-[4-amino-5-(trifluoromethyl)pyrrolo[2,1-f][1,2,4]triazin-7-yl]-4-fluoro-N-[(3R,4S)-4-fluoro-1-(4-fluoropyridine-2-carbonyl)pyrrolidin-3-yl]-2-methylbenzamide] showed an IC50 of 0.011 µM.
Work on `COc1ncc(-c2cc(C(F)(F)F)c3c(N)ncnn23)cc1C(=O)N[C@@H]1CN(C(=O)[C@@H](O)C(F)(F)F)C[C@@H]1F` [Example 322, 5-[4-amino-5-(trifluoromethyl)pyrrolo[2,1-f][1,2,4]triazin-7-yl]-N-[(3R,4S)-4-fluoro-1-[(2R)-3,3,3-trifluoro-2-hydroxypropanoyl]pyrrolidin-3-yl]-2-methoxy-pyridine-3-carboxamide] yielded an IC50 of 0.083 µM.
Molecule `COc1ncc(-c2cc(C(F)(F)F)c3c(N)ncnn23)cc1C(=O)N[C@@H]1CN(C(=O)[C@@](OC)(c2ccccc2)C(F)(F)F)C[C@@H]1F` [Example 1219, 5-[4-amino-5-(trifluoromethyl)pyrrolo[2,1-f][1,2,4]triazin-7-yl]-N-[(3R,4S)-4-fluoro-1-[(2S)-3,3,3-trifluoro-2-methoxy-2-phenylpropanoyl]pyrrolidin-3-yl]-2-methoxypyridine-3-carboxamide] has an IC50 of 0.27 µM.
In the case of `Cc1ccc(-c2cc(CN3CCC(F)(F)CC3)c3c(N)ncnn23)cc1C(=O)N[C@@H]1CN(C(=O)[C@@](C)(O)C(F)(F)F)C[C@@H]1F` [Example 1571, 5-{4-amino-5-[(4,4-difluoropiperidin-1-yl)methyl]pyrrolo[2,1-f][1,2,4]triazin-7-yl}-N-[(3R,4S)-4-fluoro-1-[(2R)-3,3,3-trifluoro-2-hydroxy-2-methylpropanoyl]pyrrolidin-3-yl]-2-methylbenzamide], the IC50 was 0.0014 µM.
`COc1ncc(-c2cc(CN3CCC(F)(F)CC3)c3c(N)ncnn23)cc1C(=O)N[C@@H]1CN(C(=O)c2ccnc(C)c2)C[C@@H]1F` [Example 1248, 5-{4-amino-5-[(4,4-difluoropiperidin-1-yl)methyl]pyrrolo[2,1-f][1,2,4]triazin-7-yl}-N-[(3R,4S)-4-fluoro-1-(2-methylpyridine-4-carbonyl)pyrrolidin-3-yl]-2-methoxypyridine-3-carboxamide] showed an IC50 of 0.0031 µM.
In the case of `COc1ncc(-c2cc(CN3CC(O)C3)c3c(N)ncnn23)cc1C(=O)N[C@@H]1CN(C(=O)C2CC(F)(F)C2)C[C@@H]1F` [Example 488, 5-{4-amino-5-[(3-hydroxyazetidin-1-yl)methyl]pyrrolo[2,1-f][1,2,4]triazin-7-yl]-N-[(3R,4S)-1-(3,3-difluorocyclobutanecarbonyl)-4-fluoropyrrolidin-3-yl]-2-methoxypyridine-3-carboxamide], the IC50 was 0.012 µM.
`Nc1ncnn2c(-c3cccc(C(=O)N[C@@H]4CN(C(=O)c5ccccc5F)C[C@@H]4F)c3)cc(CN3CC(F)(F)C3)c12` [Example 1171, 3-{4-amino-5-[(3,3-difluoroazetidin-1-yl)methyl]pyrrolo[2,1-f][1,2,4]triazin-7-yl}-N-[(3R,4S)-4-fluoro-1-(2-fluorobenzoyl)pyrrolidin-3-yl]benzamide] was tested, and the IC50 was 0.0013 µM.
Molecule `COc1ncc(-c2cc(C(F)(F)F)c3c(N)ncnn23)cc1C(=O)N[C@@H]1CC2(C[C@@H]1F)OCC(C)(C)CO2` (racemic) [Example 1846, 5-(4-amino-5-(trifluoromethyl)pyrrolo[2,1-f][1,2,4]triazin-7-yl)-N-((2RS,3SR)-3-fluoro-8,8-dimethyl-6,10-dioxaspiro[4.5]decan-2-yl)-2-methoxynicotinamide] has an IC50 of 0.457 µM.
For `COc1ccc(-c2cc(C(F)(F)F)c3c(N)ncnn23)cc1C(=O)N[C@@H]1CN(C(=O)C(C)C(F)(F)F)C[C@@H]1F` (stereo partly drawn) [Example 1123, 5-[4-amino-5-(trifluoromethyl)pyrrolo[2,1-f][1,2,4]triazin-7-yl]-N-[(3R,4S)-4-fluoro-1-(3,3,3-trifluoro-2-methylpropanoyl)pyrrolidin-3-yl]-2-methoxybenzamide], the IC50 was 0.031 µM.
In the case of `COC(c1ccc(F)cc1)C(C)(O)CNC(=O)c1cc(-c2cc(C(F)(F)F)c3c(N)ncnn23)cnc1C` (stereo not shown) [Example 1752, 5-(4-amino-5-(trifluoromethyl)pyrrolo[2,1-f][1,2,4]triazin-7-yl)-N-(3-(4-fluorophenyl)-2-hydroxy-3-methoxy-2-methylpropyl)-2-methylnicotinamide], the IC50 was 0.0027 µM.
In the case of `COc1c(F)cc(-c2cc(C(F)(F)F)c3c(N)ncnn23)cc1C(=O)N[C@@H]1CN(C(=O)C2CCC(F)(F)C2)C[C@@H]1F` (stereo partly drawn) [Example 698, 5-[4-amino-5-(trifluoromethyl)pyrrolo[2,1-f][1,2,4]triazin-7-yl]-N-[(3R,4S)-1-(3,3-difluorocyclopentanecarbonyl)-4-fluoropyrrolidin-3-yl]-3-fluoro-2-methoxybenzamide], the IC50 was 0.026 µM.
In the case of `Cc1ncc(-c2cc(C(F)(F)F)c3c(N)ncnn23)cc1C(=O)Nc1cn(C(c2ccccc2)C(F)(F)F)cn1` (stereo not shown) [Example 1799, 5-(4-amino-5-(trifluoromethyl)pyrrolo[2,1-f][1,2,4]triazin-7-yl)-2-methyl-N-(1-(2,2,2-trifluoro-1-phenylethyl)-1H-imidazol-4-yl)nicotinamide], the IC50 was 0.0046 µM.
Molecule `Cc1ncc(-c2cc(C(F)(F)F)c3c(N)ncnn23)cc1C(=O)Nc1cn(Cc2ccccc2)cn1` [Example 1724, 5-(4-amino-5-(trifluoromethyl)pyrrolo[2,1-f][1,2,4]triazin-7-yl)-N-(1-benzyl-1H-imidazol-4-yl)-2-methylnicotinamide] has an IC50 of 0.00061 µM.
For `COc1ncc(-c2cc(C(F)(F)F)c3c(N)ncnn23)cc1C(=O)N[C@@H]1CN(C(=O)OCC2CCC2)C[C@@H]1F` [Example 1431, cyclobutylmethyl (3R,4S)-3-{5-[4-amino-5-(trifluoromethyl)pyrrolo[2,1-f][1,2,4]triazin-7-yl]-2-methoxypyridine-3-amido}-4-fluoropyrrolidine-1-carboxylate], the IC50 was 0.0055 µM.
`COc1ncc(-c2cc(C(F)(F)F)c3c(N)ncnn23)cc1C(=O)N[C@@H]1CN(C(C)c2csc(C)n2)C[C@@H]1F` (stereo partly drawn) [Example 443, 5-[4-amino-5-(trifluoromethyl)pyrrolo[2,1-f][1,2,4]triazin-7-yl]-N-[(3R,4S)-4-fluoro-1-[1-(2-methyl-1,3-thiazol-4-yl)ethyl]pyrrolidin-3-yl]-2-methoxypyridine-3-carboxamide] gave an IC50 of 0.021 µM.
`COc1ncc(-c2cc(C(F)(F)F)c3c(N)ncnn23)cc1C(=O)N[C@H]1CCC[C@@H](c2ccc(F)cc2)C1` (racemic) [Example 1696, 5-(4-amino-5-(trifluoromethyl)pyrrolo[2,1-f][1,2,4]triazin-7-yl)-N-((1SR,3RS)-3-(4-fluorophenyl)cyclohexyl)-2-methoxynicotinamide] was tested, and the IC50 was 0.0093 µM.
`COc1c(F)cc(-c2cc(C(F)(F)F)c3c(N)ncnn23)cc1C(=O)N[C@@H]1CN(C(=O)CC(O)(C(F)(F)F)C(F)(F)F)C[C@@H]1F` [Example 690, 5-[4-amino-5-(trifluoromethyl)pyrrolo[2,1-f][1,2,4]triazin-7-yl]-3-fluoro-N-[(3R,4S)-4-fluoro-1-[4,4,4-trifluoro-3-hydroxy-3-(trifluoromethyl)butanoyl]pyrrolidin-3-yl]-2-methoxybenzamide] was tested, and the IC50 was 0.005 µM.
In the case of `COc1cc(C(=O)N[C@@H]2CN(C(=O)CC(C)C(F)(F)F)C[C@@H]2F)cc(-c2cc(C(F)(F)F)c3c(N)ncnn23)c1` (stereo partly drawn) [Example 583, 3-[4-amino-5-(trifluoromethyl)pyrrolo[2,1-f][1,2,4]triazin-7-yl]-N-[(3R,4S)-4-fluoro-1-(4,4,4-trifluoro-3-methylbutanoyl)pyrrolidin-3-yl]-5-methoxybenzamide], the IC50 was 0.0042 µM.
In the case of `COc1ncc(-c2cc(C(F)(F)F)c3c(N)ncnn23)cc1C(=O)N[C@@H]1CN(C(C)(C)C(C)=O)C[C@@H]1F` [Example 1682, 5-(4-amino-5-(trifluoromethyl)pyrrolo[2,1-f][1,2,4]triazin-7-yl)-N-((3R,4S)-4-fluoro-1-(2-methyl-3-oxobutan-2-yl)pyrrolidin-3-yl)-2-methoxynicotinamide], the IC50 was 0.2 µM.
For `COc1ncc(-c2cc(C(F)(F)F)c3c(N)ncnn23)cc1C(=O)NC1CN(Cc2ccc(C)cc2)CC1F` (racemic) [Example 233, 5-[4-amino-5-(trifluoromethyl)pyrrolo[2,1-f][1,2,4]triazin-7-yl]-N-{4-fluoro-1-[(4-methylphenyl)methyl]pyrrolidin-3-yl}-2-methoxypyridine-3-carboxamide], the IC50 was 0.03 µM.
With `COc1ncc(-c2cc(C(F)(F)F)c3c(N)ncnn23)cc1C(=O)N[C@@H]1CN(C(=O)CC(C)(C)O)C[C@@H]1F` [Example 317, 5-[4-amino-5-(trifluoromethyl)pyrrolo[2,1-f][1,2,4]triazin-7-yl]-N-[(3R,4S)-4-fluoro-1-(3-hydroxy-3-methylbutanoyl)pyrrolidin-3-yl]-2-methoxypyridine-3-carboxamide] the IC50 was 0.328 µM.
For `CC(CCNC(=O)c1cc(-c2cc(C(F)(F)F)c3c(N)ncnn23)ccc1F)c1ccccc1` (stereo not shown) [Example 243, 5-[4-amino-5-(trifluoromethyl)pyrrolo[2,1-f][1,2,4]triazin-7-yl]-2-fluoro-N-(3-phenylbutyl)benzamide], the IC50 was 0.045 µM.
`Nc1ncnn2c(-c3cncc(C(=O)N[C@@H]4CN(C(=O)C5CCC(F)(F)CC5)C[C@@H]4F)c3)cc(C(F)(F)F)c12` [Example 280, 5-[4-amino-5-(trifluoromethyl)pyrrolo[2,1-f][1,2,4]triazin-7-yl]-N-[(3R,4S)-1-(4,4-difluorocyclohexanecarbonyl)-4-fluoropyrrolidin-3-yl]pyridine-3-carboxamide] gave an IC50 of 0.351 µM.
